Screen size: about 310,000 compounds; about 2,200 (0.71%) showed an effect of 50% or more. The effect is printed as a negative number. The list shows a part of the results.

human ether-à-go-go-related gene (hERG) potassium channel, sequence (Q12809 whole entry, looked up): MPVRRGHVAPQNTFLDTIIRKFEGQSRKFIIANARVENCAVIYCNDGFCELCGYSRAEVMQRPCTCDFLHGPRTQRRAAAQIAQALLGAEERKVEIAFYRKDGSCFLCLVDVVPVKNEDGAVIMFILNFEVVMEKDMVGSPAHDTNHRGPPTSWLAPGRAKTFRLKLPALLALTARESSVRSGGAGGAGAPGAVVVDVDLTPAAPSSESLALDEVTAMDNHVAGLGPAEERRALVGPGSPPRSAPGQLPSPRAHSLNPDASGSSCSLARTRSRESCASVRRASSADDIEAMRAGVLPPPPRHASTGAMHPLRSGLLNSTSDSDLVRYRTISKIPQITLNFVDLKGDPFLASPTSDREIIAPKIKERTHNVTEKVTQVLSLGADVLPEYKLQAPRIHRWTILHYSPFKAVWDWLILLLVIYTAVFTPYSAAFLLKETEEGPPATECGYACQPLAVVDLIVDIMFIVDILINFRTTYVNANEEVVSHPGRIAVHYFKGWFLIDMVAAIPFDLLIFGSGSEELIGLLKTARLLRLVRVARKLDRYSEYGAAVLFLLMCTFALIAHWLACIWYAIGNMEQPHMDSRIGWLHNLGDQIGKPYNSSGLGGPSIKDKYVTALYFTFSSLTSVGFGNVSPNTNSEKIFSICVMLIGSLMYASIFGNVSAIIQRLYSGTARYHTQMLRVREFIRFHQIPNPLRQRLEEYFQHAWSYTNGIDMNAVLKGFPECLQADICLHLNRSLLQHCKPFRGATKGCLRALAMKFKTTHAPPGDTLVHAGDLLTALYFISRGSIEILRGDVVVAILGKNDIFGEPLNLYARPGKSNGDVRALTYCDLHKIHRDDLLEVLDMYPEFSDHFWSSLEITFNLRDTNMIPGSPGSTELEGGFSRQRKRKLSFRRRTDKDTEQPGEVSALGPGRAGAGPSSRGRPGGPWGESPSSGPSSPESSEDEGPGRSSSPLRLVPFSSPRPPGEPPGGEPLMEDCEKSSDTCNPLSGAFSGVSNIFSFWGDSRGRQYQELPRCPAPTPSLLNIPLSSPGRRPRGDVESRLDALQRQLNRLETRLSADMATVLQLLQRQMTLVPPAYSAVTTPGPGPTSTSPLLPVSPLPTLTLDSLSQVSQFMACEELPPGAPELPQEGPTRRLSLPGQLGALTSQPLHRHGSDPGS

The test addresses human ether-à-go-go-related gene (hERG) potassium channel (human, UniProt Q12809). The experiment in a line: primary screen, population patch clamp on CHO cells stably expressing hERG.
As for `CCN(CC)S(=O)(=O)c1cccc(C(=O)N/N=C/c2cccc(O)c2O)c1`, the “hERG current change (%, negative = inhibition) at 1uM” value stood at 10.2%.
For `COc1ccc(-c2ccnc(-c3ccc(OCCCF)cc3)n2)cc1`, the “hERG current change (%, negative = inhibition) at 1uM” value was found to be 4.03%.
Then `Nc1ccc(C(=O)N2CCN(S(=O)(=O)c3ccc4c(c3)OCCCO4)CC2)cc1[N+](=O)[O-]`, with 5.54%; and `COc1ccc(N(CC(=O)N2CCC(Cc3ccccc3)CC2)S(C)(=O)=O)cc1`, with 4.91%; and `COc1cccc(/C=C/C(=O)OCC(=O)N2c3ccccc3NC(=O)C2(C)C)c1`, with -4.44%.
In the case of `Cc1c(CCO)c(=O)[nH]n1S(=O)(=O)c1ccc([N+](=O)[O-])cc1`, the “hERG current change (%, negative = inhibition) at 1uM” value was 10.2%.
With `Nc1c(C(=O)c2ccccc2O)cnn1-c1ccc(S(=O)(=O)N2CCOCC2)cc1[N+](=O)[O-]`, the “hERG current change (%, negative = inhibition) at 1uM” value is 14.4%.
For the compound `Cc1ccc(C2(C)NC(=O)N(CC(=O)Nc3ccc4[nH]c(=O)[nH]c4c3)C2=O)cc1` (centres unmarked), the “hERG current change (%, negative = inhibition) at 1uM” value is given as -0.309%.
Then `CCC1CCC2(CC1)NC(CO)(CO)CO2` (centres unmarked), with 7.62%.
Then `COc1ccccc1Nc1nnc(SC(C)C(=O)NC2CC2)s1` (centres unmarked), with -9.37%.
As for `CC(=O)N1CCc2cc(S(=O)(=O)NCCC(=O)NC3CCN(Cc4ccccc4)CC3)ccc21`, the “hERG current change (%, negative = inhibition) at 1uM” value is 14%.
As to `Cc1cc(C)c(S(=O)(=O)n2cnc3ccccc32)c(C)c1`, the “hERG current change (%, negative = inhibition) at 1uM” value is 14%.
`CCc1ccc(C(=O)/C=C2\Sc3ccccc3NC2=O)cc1`: the “hERG current change (%, negative = inhibition) at 1uM” value was determined as 4.81%.
Turning to `COc1cccc(C(=O)Nc2nnc(-c3ccc(Cl)cc3)o2)c1`, the “hERG current change (%, negative = inhibition) at 1uM” value was 8.97%.
The value for `Cc1cccc2sc(N(CCCN(C)C)C(=O)COc3ccc(Cl)cc3)nc12.Cl` was -6.98%; that for `O=C(COC(=O)Cc1ccc(Cl)cc1Cl)NCCC1=CCCCC1` was 13.5%; that for `COc1ccc(C2C(C(=O)N3CCCC3)CC(=O)N2c2ccc(OC)cc2)cc1` (centres unmarked) was 9.52%.
Consider `N/C(=N\OC(=O)Cc1cccs1)c1ccccc1`, for which the “hERG current change (%, negative = inhibition) at 1uM” value is 2.58%.
With `Cc1occc1C(=O)NC(C)C(C)(C)C` (centres unmarked), the “hERG current change (%, negative = inhibition) at 1uM” value was determined as 8.65%.
`CNC(=O)/C(C#N)=C/c1c(N2CCCCCC2)nc2c(C)cccn2c1=O`: the “hERG current change (%, negative = inhibition) at 1uM” value was -1.77%.
For `O=C(NC1CCCCC1)C(c1cccnc1)N(C(=O)c1csnn1)c1ccccc1` (centres unmarked), the “hERG current change (%, negative = inhibition) at 1uM” value worked out at 6.97%.
For the compound `O=C(NNS(=O)(=O)c1ccc2ccccc2c1)c1cccnc1`, the “hERG current change (%, negative = inhibition) at 1uM” value was determined as 9.55%.
On to `O=C(OCCOc1ccc(F)cc1)c1ccc(S(=O)(=O)N2CCCC2)cc1`, for which the “hERG current change (%, negative = inhibition) at 1uM” value stood at 7.61%.
Turning to `O=C(Nc1cccc(S(=O)(=O)N2CCOCC2)c1)c1cc([N+](=O)[O-])ccc1N1CCOCC1`, the “hERG current change (%, negative = inhibition) at 1uM” value is reported as 7.57%.
The value for `Cc1cc(NC(=O)CSc2ncccc2C(=O)O)no1` was 9.54%; that for `C/C(=N\OCC(=O)NC(C)C)c1cccs1` was 4.61%; that for `CCOc1ccccc1NC(=O)CSc1nc2ccccc2nc1N1CCOCC1` was -2.06%.
The value for `COc1ccc(-n2nc3c(c2NC(=O)C24CC5CC(CC(C5)C2)C4)CS(=O)C3)cc1` (centres unmarked) was 1.18%; that for `Cc1cc(NC(=O)CCC(=O)N(CC(=O)NCC2CCCO2)c2ccc(F)c(Cl)c2)no1` (centres unmarked) was 13.7%; that for `COc1ccc(N(CCC#N)C(=O)/C(C#N)=C/c2cccs2)cc1` was 5.8%.
On to `Cc1cc(=O)oc2cc(OC(C)C(=O)N3CCCc4ccccc43)ccc12` (centres unmarked), for which the “hERG current change (%, negative = inhibition) at 1uM” value was -2.5%.
Then `O=C(NCc1nnc(SCc2ccc(F)cc2)n1-c1ccccc1)C12CC3CC(CC(C3)C1)C2`, with 9.54%.
With `Cc1ccc(NC(=O)CN(C)C(=O)/C=C/c2cccs2)cc1`, the “hERG current change (%, negative = inhibition) at 1uM” value is recorded as -6.26%.
For the compound `COc1ccc(CN(Cc2nc3ccccc3c(=O)[nH]2)C(=O)C(C)(C)C)cc1`, the “hERG current change (%, negative = inhibition) at 1uM” value was 18.8%.
Consider `CC(N=C1NS(=O)(=O)c2ccccc21)C(=O)N1CCc2ccccc2C1` (centres unmarked), for which the “hERG current change (%, negative = inhibition) at 1uM” value was found to be 3.41%.
In the case of `Cn1c(=O)c2cc(S(=O)(=O)NC(C(=O)Nc3cccc(F)c3)c3ccccc3)ccc2n(C)c1=O` (centres unmarked), the “hERG current change (%, negative = inhibition) at 1uM” value stood at 10.3%.
The value for `CCOc1cc(S(=O)(=O)n2nc(C)cc2C)ccc1Br` was 21.2%.
For the compound `COC(C#CCCN(C)C)(c1ccccc1)c1ccccc1.Cl`, the “hERG current change (%, negative = inhibition) at 1uM” value turned out to be 5.13%.
Then `Cn1c(=O)[nH]c(=O)c2c1nc(SCCO)n2Cc1ccccc1Cl`, with 12.1%.
The value for `CCCCCCOC(=O)Sc1nc2ccccc2o1` was 3.83%; that for `COc1ccc(NS(=O)(=O)c2ccc(NC(C)=O)cc2)nn1` was 17.6%.
For `O=Cc1ccccc1OCCOc1ccccc1C=O`, the “hERG current change (%, negative = inhibition) at 1uM” value is reported as 2.18%.
Consider `O=C(O)C(=O)O.O=C(c1ccccc1)N1CCN(C2CCCCCC2)CC1`, for which the “hERG current change (%, negative = inhibition) at 1uM” value is on record as -3.54%.
In the case of `COc1cc(-c2noc(CCC(=O)Nc3cccnc3)n2)cc(OC)c1OC`, the “hERG current change (%, negative = inhibition) at 1uM” value is reported as 7.68%.
On to `ClCC(Br)CBr` (centres unmarked), for which the “hERG current change (%, negative = inhibition) at 1uM” value is recorded as 7.42%.
For `CCCCCOc1ccccc1C(=O)NCCCC(=O)O`, the “hERG current change (%, negative = inhibition) at 1uM” value was determined as 6.2%.
Then `Cc1nc2cc3nc(C(F)(F)F)[nH]c3cc2[nH]1`, with 7.77%.
Then `Nc1ccc(C(=O)N/N=C\c2cc(N=Nc3cccc4ccccc34)ccc2O)cc1`, with 20%.
The value for `CSc1cccc(NC(=O)CCCn2c(=O)c3cccn3c3cccnc32)c1` was -3.85%.
With `COCCN(C(=O)COC(=O)C1CC1C)c1c(N)n(Cc2ccccc2)c(=O)[nH]c1=O` (centres unmarked), the “hERG current change (%, negative = inhibition) at 1uM” value is 12.6%.
Then `COc1ccc2cc(C(=O)Nc3ccc(S(N)(=O)=O)cc3)sc(=O)c2c1OC`, with 17.8%; and `O=C(c1cccs1)N1CCC(c2ccccc2)C1` (centres unmarked), with 11.6%; and `CC(C)C(=O)NCCSc1c[nH]c2ccccc12`, with 15.4%.
For `Nc1nnc(SCc2cn3cc(Cl)ccc3n2)s1`, the “hERG current change (%, negative = inhibition) at 1uM” value stood at 5.8%.
Turning to `CN1CCN(c2ccc(Cl)cc2NC(=O)/C=C/c2cccc(F)c2)CC1`, the “hERG current change (%, negative = inhibition) at 1uM” value is given as -35.4%.
As for `O=C(N/N=C/c1ccccc1Cl)c1n[nH]c2c1CCCC2`, the “hERG current change (%, negative = inhibition) at 1uM” value came to 18.1%.
`CC(=O)Nc1cccc(-c2nnc(SCC(=O)N3CCCCC3)n2C)c1`: the “hERG current change (%, negative = inhibition) at 1uM” value was determined as 5.5%.
The value for `Cc1c(N(C(=O)c2cnccn2)C2(C(=O)NC3CCCC3)CCCCC2)c(=O)n(-c2ccccc2)n1C` was 5.91%.
Consider `COCCNC(=O)Nc1ccc2nc(-c3cccs3)c(-c3cccs3)nc2c1`, for which the “hERG current change (%, negative = inhibition) at 1uM” value stood at 10.9%.
Consider `COc1ccc(Cc2noc(CN(C)CCc3ccccc3)n2)cc1OC`, for which the “hERG current change (%, negative = inhibition) at 1uM” value is given as 9.98%.
For `C=CCn1c(SCC(=O)c2cc(C)n(CCOC)c2C)nc2sc(C)c(C)c2c1=O`, the “hERG current change (%, negative = inhibition) at 1uM” value was found to be 13%.
Consider `Cn1c(CN2CCN(C(=O)c3ccco3)CC2)nc2cc([N+](=O)[O-])ccc21`, for which the “hERG current change (%, negative = inhibition) at 1uM” value is listed as -12.2%.
The value for `COc1ccc(C(=O)Nc2c(O)ccc3ccccc23)cc1` was 16%; that for `CCC(=O)NC(Nc1ccccn1)(C(=O)OC)C(F)(F)F` (centres unmarked) was 15.4%; that for `CCCCCOc1ccc(C(=O)NC(C(=O)O)C(C)C)cc1` (centres unmarked) was 15.4%.
Then `CC(C(=O)N(C)c1ccccc1)N1CCN(C(=O)c2ccccc2)CC1.O=C(O)C(=O)O` (centres unmarked), with 15.4%.
Turning to `O=C(NCCCN1CCOCC1)c1nn2c(C(F)(F)F)cc(-c3ccco3)nc2c1Cl`, the “hERG current change (%, negative = inhibition) at 1uM” value is 9.8%.
As for `Cc1ccc(S(=O)(=O)C(C#N)c2nc3ccccc3nc2OC(C)C)cc1` (centres unmarked), the “hERG current change (%, negative = inhibition) at 1uM” value is 3.16%.
On to `C=CCNC(=O)/C(C#N)=C/c1cn(-c2ccccc2)nc1-c1cccs1`, for which the “hERG current change (%, negative = inhibition) at 1uM” value is recorded as -16%.
Regarding `NS(=O)(=O)c1ccc(CCNC(=O)c2ccc3c(c2)OCO3)cc1`, the “hERG current change (%, negative = inhibition) at 1uM” value worked out at 12.5%.
Consider `CC(C)CC(NC(=O)OC(C)(C)C)C(=O)O.O` (centres unmarked), for which the “hERG current change (%, negative = inhibition) at 1uM” value is given as 10.9%.
As to `CCCC1=C(C(=O)OCC)C(c2sccc2C)n2ncnc2N1` (centres unmarked), the “hERG current change (%, negative = inhibition) at 1uM” value stood at 12.9%.
The value for `CCOC(=O)c1c(C)nc2c(c1-c1ccccc1)C(=O)CC(C)(C)C2` was 11.7%.
For the compound `N#Cc1c(NC(=O)C2CCCO2)sc2c1CCCCC2` (centres unmarked), the “hERG current change (%, negative = inhibition) at 1uM” value is given as 15.8%.
In the case of `Cn1nccc1C(=O)N1CCN(c2ccccc2F)CC1`, the “hERG current change (%, negative = inhibition) at 1uM” value came out at 15.2%.
The value for `Cc1csc(N/N=C/c2ccc([N+](=O)[O-])cc2)n1` was 5.4%.
`CC1CN(c2ccc([N+](=O)[O-])cc2C#N)CC(C)O1` (centres unmarked): the “hERG current change (%, negative = inhibition) at 1uM” value was -12.3%.
In the case of `COc1cccc(Nc2nc(C)cc(C)c2C(N)=O)c1`, the “hERG current change (%, negative = inhibition) at 1uM” value came out at 14.2%.
The value for `O=C(NC1CCCCC1)c1ccc(OC2CCN(Cc3ccccn3)CC2)cc1` was -1.78%; that for `COC(=O)c1cc2ccsc2n1Cc1nc(-c2ccc(OC)cc2)oc1C` was 16.9%.
As for `O=C(CN1C(=O)c2ccccc2C1=O)NCc1ccccn1`, the “hERG current change (%, negative = inhibition) at 1uM” value is 11%.
Regarding `CCOC(=O)CNC(=O)CSc1nc(N(C)C)nc(N2CCOCC2)n1`, the “hERG current change (%, negative = inhibition) at 1uM” value worked out at 13.8%.
In the case of `CN1C(C(=O)NCc2ccc(OC(F)(F)F)cc2)CC2Cn3c(nc4cc(Cl)c(Cl)cc43)C21` (centres unmarked), the “hERG current change (%, negative = inhibition) at 1uM” value was -22.4%.
`CC(C)C[C@H](NC(=O)C1CC(=O)N(c2ccc3c(c2)OCCO3)C1)C(=O)N1CCCCC1` (some centres unmarked): the “hERG current change (%, negative = inhibition) at 1uM” value came to 7.16%.
For `COc1ccccc1NC(=O)CC(=O)c1ccccc1`, the “hERG current change (%, negative = inhibition) at 1uM” value was 17.2%.
The value for `CC(C)Oc1ccc(N2CC(C(=O)NC3=NCCS3)CC2=O)cc1` (centres unmarked) was 7.27%; that for `C=CCn1c(=O)c2c(C)c(C)sc2n2c(Nc3ccc(OC)cc3)nnc12` was 12.3%.
With `COc1ccc(N(CC(=O)NCCSCc2c(F)cccc2Cl)S(C)(=O)=O)cc1OC`, the “hERG current change (%, negative = inhibition) at 1uM” value was 6.97%.
As for `CCCCc1ccc(NC(=S)NN2CCOCC2)cc1`, the “hERG current change (%, negative = inhibition) at 1uM” value is given as 12.1%.

(Values after paper PMC4336329 (PLoS ONE, 2015).)
